Data: PMC5129914
No constants are given. Whether binding was seen depends on the method and setting. In cells and extracts the contact can be indirect. Some entries that bind do so weakly or less than the wild type. One block for each molecule: values may come before it.

The chains behind the UniProt entries cited, without tags or fusion partners. Where a name states a change or a piece, a line headed by the entry shows the natural chain unless it says otherwise. A line that says so, or that is headed by a name, gives the form on record, which may keep a tag or linker. Residues count along the entry.
UniProt Q96EB6: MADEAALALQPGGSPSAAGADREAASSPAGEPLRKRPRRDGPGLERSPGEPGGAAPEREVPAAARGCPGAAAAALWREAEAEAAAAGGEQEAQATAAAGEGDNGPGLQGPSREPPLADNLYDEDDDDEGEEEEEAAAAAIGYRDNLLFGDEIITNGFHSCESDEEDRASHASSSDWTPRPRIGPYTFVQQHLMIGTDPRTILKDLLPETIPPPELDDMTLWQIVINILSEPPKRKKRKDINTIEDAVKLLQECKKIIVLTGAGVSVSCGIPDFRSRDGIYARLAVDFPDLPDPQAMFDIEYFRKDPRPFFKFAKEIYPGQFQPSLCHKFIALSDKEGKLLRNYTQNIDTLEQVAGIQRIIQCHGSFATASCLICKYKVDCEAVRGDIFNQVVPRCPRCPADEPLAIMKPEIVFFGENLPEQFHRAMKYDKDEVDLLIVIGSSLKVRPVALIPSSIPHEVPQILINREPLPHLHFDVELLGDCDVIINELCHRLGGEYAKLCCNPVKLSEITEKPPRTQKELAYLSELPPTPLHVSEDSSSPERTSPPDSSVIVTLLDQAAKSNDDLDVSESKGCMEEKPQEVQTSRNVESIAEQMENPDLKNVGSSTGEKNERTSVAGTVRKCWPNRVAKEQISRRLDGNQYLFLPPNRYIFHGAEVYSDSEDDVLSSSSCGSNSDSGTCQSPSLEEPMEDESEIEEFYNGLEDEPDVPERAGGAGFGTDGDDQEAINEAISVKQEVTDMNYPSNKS
truncated FLAG-tagged human SIRT1 lacking 105 amino acids at the amino-terminus (∆SIRT1-FLAG): residues 106-747 of Q96EB6
UniProt O95714: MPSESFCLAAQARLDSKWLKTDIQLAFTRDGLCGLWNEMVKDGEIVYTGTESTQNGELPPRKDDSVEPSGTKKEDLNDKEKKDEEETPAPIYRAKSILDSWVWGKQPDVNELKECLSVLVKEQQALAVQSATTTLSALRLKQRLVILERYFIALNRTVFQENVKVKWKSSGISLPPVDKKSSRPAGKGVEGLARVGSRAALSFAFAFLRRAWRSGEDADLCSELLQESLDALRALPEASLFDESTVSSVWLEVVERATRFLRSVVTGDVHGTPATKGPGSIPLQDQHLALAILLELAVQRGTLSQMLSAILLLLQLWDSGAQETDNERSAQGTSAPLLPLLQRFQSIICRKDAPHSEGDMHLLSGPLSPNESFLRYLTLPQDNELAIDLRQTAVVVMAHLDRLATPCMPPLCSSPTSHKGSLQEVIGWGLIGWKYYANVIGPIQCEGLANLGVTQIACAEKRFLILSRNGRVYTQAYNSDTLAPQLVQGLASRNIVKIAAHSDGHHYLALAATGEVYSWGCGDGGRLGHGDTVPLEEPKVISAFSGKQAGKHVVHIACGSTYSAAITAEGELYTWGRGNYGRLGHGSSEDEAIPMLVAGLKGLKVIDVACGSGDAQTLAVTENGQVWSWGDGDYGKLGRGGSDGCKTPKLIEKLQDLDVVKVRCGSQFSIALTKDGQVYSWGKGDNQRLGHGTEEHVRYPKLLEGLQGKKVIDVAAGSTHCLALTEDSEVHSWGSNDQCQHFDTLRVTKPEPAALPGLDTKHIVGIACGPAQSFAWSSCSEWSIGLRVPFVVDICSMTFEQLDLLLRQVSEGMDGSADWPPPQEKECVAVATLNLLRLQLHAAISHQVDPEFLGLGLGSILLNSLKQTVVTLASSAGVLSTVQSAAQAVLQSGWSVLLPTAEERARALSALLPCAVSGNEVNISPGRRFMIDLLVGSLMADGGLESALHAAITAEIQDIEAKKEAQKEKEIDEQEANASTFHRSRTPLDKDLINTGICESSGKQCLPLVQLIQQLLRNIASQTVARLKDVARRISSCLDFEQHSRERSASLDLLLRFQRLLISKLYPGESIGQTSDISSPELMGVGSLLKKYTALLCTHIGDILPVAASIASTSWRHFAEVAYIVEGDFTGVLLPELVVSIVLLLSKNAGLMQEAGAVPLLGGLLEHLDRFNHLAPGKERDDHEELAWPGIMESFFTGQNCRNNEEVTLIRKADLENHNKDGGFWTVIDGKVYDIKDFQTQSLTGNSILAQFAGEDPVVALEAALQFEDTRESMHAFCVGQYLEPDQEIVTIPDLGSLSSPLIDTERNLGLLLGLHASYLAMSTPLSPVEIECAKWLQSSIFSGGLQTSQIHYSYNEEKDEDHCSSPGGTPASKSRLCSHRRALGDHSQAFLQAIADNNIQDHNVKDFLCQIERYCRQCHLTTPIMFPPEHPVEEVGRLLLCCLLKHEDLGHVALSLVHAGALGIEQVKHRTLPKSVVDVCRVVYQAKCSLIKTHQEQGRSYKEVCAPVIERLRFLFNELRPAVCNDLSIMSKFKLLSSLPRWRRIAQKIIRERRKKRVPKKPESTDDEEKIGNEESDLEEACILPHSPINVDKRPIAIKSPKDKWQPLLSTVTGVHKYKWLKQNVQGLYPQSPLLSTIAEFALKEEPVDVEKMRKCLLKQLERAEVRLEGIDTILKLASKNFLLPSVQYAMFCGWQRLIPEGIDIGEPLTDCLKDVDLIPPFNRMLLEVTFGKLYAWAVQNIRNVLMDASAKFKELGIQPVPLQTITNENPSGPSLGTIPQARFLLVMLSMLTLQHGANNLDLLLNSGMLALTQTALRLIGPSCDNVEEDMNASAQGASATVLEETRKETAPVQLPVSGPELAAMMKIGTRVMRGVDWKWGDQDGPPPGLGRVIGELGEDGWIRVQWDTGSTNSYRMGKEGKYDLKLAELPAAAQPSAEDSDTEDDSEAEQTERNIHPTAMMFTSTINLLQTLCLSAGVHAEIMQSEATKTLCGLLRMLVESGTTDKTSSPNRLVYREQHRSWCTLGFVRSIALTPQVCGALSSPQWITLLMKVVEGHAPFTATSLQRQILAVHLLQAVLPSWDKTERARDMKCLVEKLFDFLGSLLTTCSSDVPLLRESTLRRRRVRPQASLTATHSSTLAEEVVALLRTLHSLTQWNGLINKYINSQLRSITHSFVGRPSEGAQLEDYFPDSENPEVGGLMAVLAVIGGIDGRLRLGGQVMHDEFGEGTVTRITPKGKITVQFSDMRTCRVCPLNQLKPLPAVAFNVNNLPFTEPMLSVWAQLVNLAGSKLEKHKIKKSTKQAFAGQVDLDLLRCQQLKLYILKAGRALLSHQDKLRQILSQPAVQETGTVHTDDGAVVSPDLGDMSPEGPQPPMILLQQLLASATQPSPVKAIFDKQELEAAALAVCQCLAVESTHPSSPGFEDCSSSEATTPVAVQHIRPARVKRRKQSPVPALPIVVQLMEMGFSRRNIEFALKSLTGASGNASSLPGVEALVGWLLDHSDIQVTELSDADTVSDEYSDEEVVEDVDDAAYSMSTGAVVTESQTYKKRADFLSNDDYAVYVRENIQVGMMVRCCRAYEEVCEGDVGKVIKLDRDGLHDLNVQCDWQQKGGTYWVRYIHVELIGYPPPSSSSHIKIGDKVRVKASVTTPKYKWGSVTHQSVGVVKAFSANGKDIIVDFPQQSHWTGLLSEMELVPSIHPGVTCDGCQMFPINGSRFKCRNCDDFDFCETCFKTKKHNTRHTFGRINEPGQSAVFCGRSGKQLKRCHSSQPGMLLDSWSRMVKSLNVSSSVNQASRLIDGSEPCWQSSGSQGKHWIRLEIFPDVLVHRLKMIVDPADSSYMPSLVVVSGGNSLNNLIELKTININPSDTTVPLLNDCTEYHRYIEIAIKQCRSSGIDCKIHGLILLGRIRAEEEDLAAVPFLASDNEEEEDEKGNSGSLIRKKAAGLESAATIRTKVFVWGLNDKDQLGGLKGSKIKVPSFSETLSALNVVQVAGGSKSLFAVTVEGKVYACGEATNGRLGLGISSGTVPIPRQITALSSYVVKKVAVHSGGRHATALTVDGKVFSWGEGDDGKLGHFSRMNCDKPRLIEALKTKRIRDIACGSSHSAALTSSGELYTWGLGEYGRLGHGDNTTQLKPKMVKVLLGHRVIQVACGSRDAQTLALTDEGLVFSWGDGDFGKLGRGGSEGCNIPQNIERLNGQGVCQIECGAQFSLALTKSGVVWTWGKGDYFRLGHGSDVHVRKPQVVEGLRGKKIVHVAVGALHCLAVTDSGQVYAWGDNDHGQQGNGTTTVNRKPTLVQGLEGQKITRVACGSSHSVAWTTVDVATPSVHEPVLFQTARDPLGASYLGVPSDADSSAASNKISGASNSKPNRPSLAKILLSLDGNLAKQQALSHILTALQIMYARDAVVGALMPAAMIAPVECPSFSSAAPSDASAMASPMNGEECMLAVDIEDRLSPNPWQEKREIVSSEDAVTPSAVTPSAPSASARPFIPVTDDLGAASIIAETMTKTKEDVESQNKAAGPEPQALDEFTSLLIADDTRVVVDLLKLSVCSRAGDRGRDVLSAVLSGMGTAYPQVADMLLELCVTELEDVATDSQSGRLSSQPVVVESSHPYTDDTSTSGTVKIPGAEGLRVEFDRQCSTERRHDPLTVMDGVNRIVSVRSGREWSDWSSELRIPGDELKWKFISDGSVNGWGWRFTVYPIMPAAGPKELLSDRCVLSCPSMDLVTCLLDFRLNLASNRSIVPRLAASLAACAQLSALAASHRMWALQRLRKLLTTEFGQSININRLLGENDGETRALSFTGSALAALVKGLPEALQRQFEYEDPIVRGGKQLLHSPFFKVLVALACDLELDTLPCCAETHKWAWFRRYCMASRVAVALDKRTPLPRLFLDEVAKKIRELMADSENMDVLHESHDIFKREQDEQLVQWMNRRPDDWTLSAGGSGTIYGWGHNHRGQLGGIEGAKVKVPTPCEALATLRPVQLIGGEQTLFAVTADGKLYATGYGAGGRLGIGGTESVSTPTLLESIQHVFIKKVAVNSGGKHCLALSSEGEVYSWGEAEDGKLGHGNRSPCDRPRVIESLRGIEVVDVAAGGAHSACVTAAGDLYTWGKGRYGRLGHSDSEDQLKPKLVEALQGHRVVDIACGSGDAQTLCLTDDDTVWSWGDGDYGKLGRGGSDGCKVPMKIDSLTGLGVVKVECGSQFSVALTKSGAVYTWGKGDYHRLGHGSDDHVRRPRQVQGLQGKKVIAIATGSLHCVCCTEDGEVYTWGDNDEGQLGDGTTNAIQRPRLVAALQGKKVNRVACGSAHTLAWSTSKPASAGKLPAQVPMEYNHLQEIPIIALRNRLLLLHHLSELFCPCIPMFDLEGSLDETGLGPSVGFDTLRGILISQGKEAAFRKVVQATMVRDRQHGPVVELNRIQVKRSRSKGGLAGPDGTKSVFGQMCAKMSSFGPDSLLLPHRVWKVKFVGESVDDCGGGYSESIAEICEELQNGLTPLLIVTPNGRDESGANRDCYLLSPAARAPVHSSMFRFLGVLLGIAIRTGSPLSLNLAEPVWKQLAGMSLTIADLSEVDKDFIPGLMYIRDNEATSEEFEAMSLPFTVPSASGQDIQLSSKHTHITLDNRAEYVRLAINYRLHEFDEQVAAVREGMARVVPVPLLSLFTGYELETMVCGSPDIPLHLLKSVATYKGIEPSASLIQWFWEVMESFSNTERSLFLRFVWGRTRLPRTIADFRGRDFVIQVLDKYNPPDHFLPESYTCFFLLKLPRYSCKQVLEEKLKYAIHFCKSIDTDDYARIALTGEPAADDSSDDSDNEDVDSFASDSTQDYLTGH
HERC2-NH2 (amino-terminus of human HERC2, residues 1-199, fusion protein with glutathione S-transferase): residues 1-199 of O95714
HERC2-CPH (CPH domain of human HERC2, residues 2547-2640, fusion protein with glutathione S-transferase): residues 2547-2640 of O95714

Tests used:
[1] = molecular target: SIRT1 (endogenous, HEK293 cells) (human (endogenous in HEK293)) (UniProt Q96EB6); assay: co-IP; lysates of cells transfected with HERC2 sub-domains; anti-SIRT1 antibodies; sub-domains detected with an anti-FLAG antibody
[2] = molecular target: T1, LKB1 (endogenous, HEK293 cells) (human (endogenous in HEK293)) (UniProt Q15831); assay: co-IP; cells overexpressing HERC2-DOC or HERC2-RCC2 (control RNAi) or HERC2-HECT (FLAG-tagged or non-tagged); anti-LKB1 antibodies; detection with anti-FLAG or anti-HERC2 antibodies
T1 sequence: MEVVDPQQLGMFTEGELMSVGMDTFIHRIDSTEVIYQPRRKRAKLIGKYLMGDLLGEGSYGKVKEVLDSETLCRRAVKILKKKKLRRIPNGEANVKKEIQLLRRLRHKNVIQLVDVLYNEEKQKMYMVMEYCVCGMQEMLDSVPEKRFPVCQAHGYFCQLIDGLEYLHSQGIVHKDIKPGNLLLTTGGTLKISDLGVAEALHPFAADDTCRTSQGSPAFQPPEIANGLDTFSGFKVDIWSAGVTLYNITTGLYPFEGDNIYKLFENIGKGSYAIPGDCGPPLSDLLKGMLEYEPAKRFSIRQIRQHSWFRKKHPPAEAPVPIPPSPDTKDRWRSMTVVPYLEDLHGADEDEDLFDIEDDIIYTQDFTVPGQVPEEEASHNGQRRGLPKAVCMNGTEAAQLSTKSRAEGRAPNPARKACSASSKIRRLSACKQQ

[3] = molecular target: SIRT1 (endogenous, human umbilical vein endothelial cells) (human (endogenous in HUVEC)) (UniProt Q96EB6); assay: co-IP; HUVEC (Supplementary Figure 2A and 2B); nuclear and cytosolic compartments
[4] = molecular target: full-length SIRT1 (overexpressed, compared with the truncated form) (human) (UniProt Q96EB6); assay: co-IP; full-length SIRT1 against truncated SIRT1 lacking the amino-terminal 105 residues; Supplementary Figure 5C; cells and antibodies not told (the abstract names co-immunoprecipitation)
[5] = molecular target: truncated FLAG-tagged human SIRT1 lacking 105 amino acids at the amino-terminus (∆SIRT1-FLAG) (human) (UniProt Q96EB6); assay: as above
[6] = molecular target: HERC2-CPH (CPH domain of human HERC2, residues 2547-2640, fusion protein with glutathione S-transferase) (human) (UniProt O95714); assay: pull-down; in vitro pull-down with HERC2-NH2 and HERC2-CPH (GST fusion proteins); Supplementary Figure 5A
[7] = molecular target: HERC2-NH2 (amino-terminus of human HERC2, residues 1-199, fusion protein with glutathione S-transferase) (human) (UniProt O95714); assay: as above

Molecule: HERC2-HECT domain without any fusion tags (HECT-noTag) (from UniProt O95714 4419-4834) (domain or fragment)
binding [2]: no binding

Molecule: HERC2 (endogenous, human umbilical vein endothelial cells) (from UniProt O95714 1-4834)
binding [3]: binds

Molecule: HERC2-HECT (HECT-3FLAG; HERC2 amino acid 4419 to 4834 with a carboxy-terminal triple-FLAG tag) (from UniProt O95714 4419-4834) (domain or fragment)
binding [1]: no binding
binding [2]: no binding

B1: LKB1 (in vitro pull-down experiments) (protein, UniProt Q9WTK7 1-436)
chain: MDVADPEPLGLFSEGELMSVGMDTFIHRIDSTEVIYQPRRKRAKLIGKYLMGDLLGEGSYGKVKEVLDSETLCRRAVKILKKKKLRRIPNGEANVKKEIQLLRRLRHRNVIQLVDVLYNEEKQKMYMVMEYCVCGMQEMLDSVPEKRFPVCQAHGYFRQLIDGLEYLHSQGIVHKDIKPGNLLLTTNGTLKISDLGVAEALHPFAVDDTCRTSQGSPAFQPPEIANGLDTFSGFKVDIWSAGVTLYNITTGLYPFEGDNIYKLFENIGRGDFTIPCDCGPPLSDLLRGMLEYEPAKRFSIRQIRQHSWFRKKHPLAEALVPIPPSPDTKDRWRSMTVVPYLEDLHGRAEEEEEEDLFDIEDGIIYTQDFTVPGQVLEEEVGQNGQSHSLPKAVCVNGTEPQLSSKVKPEGRPGTANPARKVCSSNKIRRLSACKQQ
binding [6]: no binding
binding [7]: no binding

Now from value to molecule:

binding [1]: binds
Molecule: HERC2-RCC2 (RCC2-3FLAG; HERC2 amino acid 2786 to 3642 with a carboxy-terminal triple-FLAG tag) (from UniProt O95714 2786-3642) (domain or fragment)

binding [1]: binds
Molecule: HERC2-DOC (DOC-3FLAG; HERC2 amino acid 2765 to 2910 with a carboxy-terminal triple-FLAG tag) (from UniProt O95714 2765-2910) (domain or fragment)

binding [4]: binds
binding [5]: no binding
Molecule: HERC2 (experiment with full-length and truncated SIRT1) (from UniProt O95714 1-4834)
